The values that follow come from the supplement of paper PMC11369174, “Proteome-scale characterisation of motif-based interactome rewiring by disease mutations” (Molecular Systems Biology, 2024).

Some of the results follow. This is a noisy data set.

The first assay concerns the target NEDD4_WW_2_P46934_765_803. As to the kind of experiment: mutation enrichment score (mutant vs wild-type peptide binding to bait); baits are purified protein domains named by gene / domain / UniProt id / residues; peptides come from disordered regions of human proteins; higher = mutation enhances binding relative to wild type. The conditions noted are these: number of wild-type / mutant comparisons summed (bounds the score): 12; paper call: no_effect; wild-type window: ….
Take FSSASAPDQSAPPSLGHAHSKGPAPAYVASGPFREAGFPGQ [E113K E113K]: the mutation enrichment score was -1.4.

The target in a further assay is SMURF2_WW_3_Q9HAU4_298_330. The assay is described as above. Conditions: number of wild-type / mutant comparisons summed (bounds the score): 12; paper call: diminished; wild-type window: ….
In the case of FSSASAPDQSAPPSLGHAHSKGPAPAYVASGPFREAGFPGQ [E113K E113K], the mutation enrichment score is -9.9.

In another assay the target is WWTR1_WW__Q9GZV5_122_160. Described as above. The conditions noted are these: number of wild-type / mutant comparisons summed (bounds the score): 12; paper call: no_effect; wild-type window: ….
Sequence of WWTR1_WW__Q9GZV5_122_160 (chain, as listed by the source): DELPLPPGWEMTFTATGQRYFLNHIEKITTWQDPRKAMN
Turning to FSSASAPDQSAPPSLGHAHSKGPAPAYVASGPFREAGFPGQ [E113K E113K], the mutation enrichment score was 0.53. Still for that read-out and setting: as for PRSPNTGPYPSEQALPIPGTLPPNYDSLRLQPLDVIESDSE [P616L P616L], the figure is -5.

In another assay the target is T1, ZMYND11_coiled-coil-MYND__Q15326_480_602.
T1 chain: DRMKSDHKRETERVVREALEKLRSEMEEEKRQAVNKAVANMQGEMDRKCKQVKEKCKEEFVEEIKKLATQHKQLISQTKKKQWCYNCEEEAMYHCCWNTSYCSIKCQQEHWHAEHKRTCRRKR
The assay is described as above. Conditions: number of wild-type / mutant comparisons summed (bounds the score): 6; paper call: no_effect; wild-type window: ….
Consider FSSASAPDQSAPPSLGHAHSKGPAPAYVASGPFREAGFPGQ [E113K E113K], for which the mutation enrichment score is -3.

The target of another assay is NEDD4_WW_2_P46934_765_803. The assay is described as above. Conditions: number of wild-type / mutant comparisons summed (bounds the score): 6; paper call: diminished; wild-type window: ….
Sequence of NEDD4_WW_2_P46934_765_803 (chain, as listed by the source): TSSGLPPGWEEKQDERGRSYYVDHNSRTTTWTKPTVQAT
Consider VVGFKNLALMDSSSSLSRNPSSYIAPYSCILRYAVSAALWL [P721S P721S], for which the mutation enrichment score was -6.

In another assay the target is OXSR1___O95747_434_527. The description is as above. Conditions: number of wild-type / mutant comparisons summed (bounds the score): 12; paper call: diminished; wild-type window: ….
Turning to EVTWSCGGRKIHSQEQGRFHNENTDDLTTLIIMDVQKQDGG [I34306N I34306N], the mutation enrichment score is -11. On the same count and under the same terms, to EVTWSCGGRKIHSQEQGRFHTENTDDLTTLIIMDVQKQDGG [I34306T I34306T] belongs -11. In the case of EVTWSCGGRKIHSQEQGRFHSENTDDLTTLIIMDVQKQDGG [I34306S I34306S], the mutation enrichment score was -11. As for PEVTWSCGGRKIHSQEQGRFPIENTDDLTTLIIMDVQKQDG [H34305P H34305P], the mutation enrichment score is -11.

The assay is the same for the next values; noted with them: number of wild-type / mutant comparisons summed (bounds the score): 6; paper call: no_effect; wild-type window: ….
With LQIRETSLDTKSVSEGHLKRIIVVKTVEMRDGEVIKESKQE [N407I N407I], the mutation enrichment score was -2. On the same count and under the same terms, as for PTKIREYTLTHLPQGAEYRFHVLACNAGGPGEPAEVPGTVK [R31033H R31033H], the figure is 3. Still for that read-out and setting: to TKKQPTGASLVLQVSYTPLPEAVPLFPPPTPLEPSPTLPDL [G128E G128E] belongs -1. In the case of REDFRSVLRRAPEPRPEFHVREPGKLQFEVQKVDRPVDTTE [H1952R H1952R], the mutation enrichment score is 2.3.

A further assay deals with NEDD4_WW_2_P46934_765_803. Described as above. Conditions: number of wild-type / mutant comparisons summed (bounds the score): 24; paper call: diminished; wild-type window: ….
As for NTGPYPSEQALPIPGTPPPNHDSLRLQPLDVIESDSEGDAI [Y620H Y620H], the mutation enrichment score is -16. The same measure, in the same setting: as for RSPNTGPYPSEQALPIPGTPSPNYDSLRLQPLDVIESDSEG [P617S P617S], the figure is -16.

The next assay has as its target SMURF2_WW_3_Q9HAU4_298_330. The description is as above. Conditions: number of wild-type / mutant comparisons summed (bounds the score): 12; paper call: no_effect; wild-type window: ….
Regarding NTGPYPSEQALPIPGTPPPNHDSLRLQPLDVIESDSEGDAI [Y620H Y620H], the mutation enrichment score is -2. On to RSPNTGPYPSEQALPIPGTPSPNYDSLRLQPLDVIESDSEG [P617S P617S], for which the mutation enrichment score is -2. Regarding PRSPNTGPYPSEQALPIPGTLPPNYDSLRLQPLDVIESDSE [P616L P616L], the mutation enrichment score amounted to 5.

In a further assay the target is WWTR1_WW__Q9GZV5_122_160. The description is as above. Conditions: number of wild-type / mutant comparisons summed (bounds the score): 6; paper call: diminished; wild-type window: ….
With NTGPYPSEQALPIPGTPPPNHDSLRLQPLDVIESDSEGDAI [Y620H Y620H], the mutation enrichment score was -6. Take RSPNTGPYPSEQALPIPGTPSPNYDSLRLQPLDVIESDSEG [P617S P617S]: the mutation enrichment score is -6. Same read-out and setting: to PRSPNTGPYPSEQALPIPGTRPPNYDSLRLQPLDVIESDSE [P616R P616R] belongs -6.

The next assay deals with NEDD4_WW_2_P46934_765_803. The assay is described as above. The conditions noted are these: number of wild-type / mutant comparisons summed (bounds the score): 6; paper call: no_effect; wild-type window: ….
In the case of SSAVSASGSTSSQGDQSNPAKSPFSPHASPHLSSIPGGPSP [Q704K Q704K], the mutation enrichment score was -4. Consider TKQKEFFDVWPVLMGEVPPYCGPRTPDGREINFYKVIDYIL [S303C S303C], for which the mutation enrichment score was -3.

Take SDSDTDSSQEENEVTEHTPLPRPLASVSAQSFGALSESRSH [L312P L312P]: the mutation enrichment score is -2. Same read-out and setting: as for VNSYYPTPPAPMPGPTTGLVMGPDGKGMNPPSYYTQPAPIP [T49M T49M], the figure is 0.66.

The target in another assay is SMURF2_WW_3_Q9HAU4_298_330. The description is as above. Conditions: number of wild-type / mutant comparisons summed (bounds the score): 6; paper call: no_effect; wild-type window: ….
On to TKQKEFFDVWPVLMGEVPPYCGPRTPDGREINFYKVIDYIL [S303C S303C], for which the mutation enrichment score was -5. For PRSPNTGPYPSEQALPIPGTRPPNYDSLRLQPLDVIESDSE [P616R P616R], the mutation enrichment score is -1. On to PRSPNTGPYPSEQALPIPGTSPPNYDSLRLQPLDVIESDSE [P616S P616S], for which the mutation enrichment score turned out to be 2.2.

The target in another assay is WWTR1_WW__Q9GZV5_122_160. Described as above. The conditions noted are these: number of wild-type / mutant comparisons summed (bounds the score): 6; paper call: no_effect; wild-type window: ….
As to TKQKEFFDVWPVLMGEVPPYCGPRTPDGREINFYKVIDYIL [S303C S303C], the mutation enrichment score is -1. With VNSYYPTPPAPMPGPTTGLVMGPDGKGMNPPSYYTQPAPIP [T49M T49M], the mutation enrichment score came out at 0.46.

With PRSPNTGPYPSEQALPIPGTSPPNYDSLRLQPLDVIESDSE [P616S P616S], the mutation enrichment score is -5.8.

Another assay concerns the target NCK1_SH3_1_P16333_5_60. Described as above. The conditions noted are these: number of wild-type / mutant comparisons summed (bounds the score): 12; paper call: enhanced; wild-type window: ….
Regarding LQSGFLNNSWPLPQPPSPMPCASCQMAAAAAAAAAAAAAAG [Y215C Y215C], the mutation enrichment score amounted to 6.4.

For the next assay, the target named is Src_SH3__P12931_87_144. Described as above. The conditions noted are these: number of wild-type / mutant comparisons summed (bounds the score): 12; paper call: enhanced; wild-type window: ….
Turning to LQSGFLNNSWPLPQPPSPMPCASCQMAAAAAAAAAAAAAAG [Y215C Y215C], the mutation enrichment score was 7.

The target of a further assay is NEDD4_WW_2_P46934_765_803. The assay is described as above. The conditions noted are these: number of wild-type / mutant comparisons summed (bounds the score): 18; paper call: diminished; wild-type window: ….
In the case of PRSPNTGPYPSEQALPIPGTRPPNYDSLRLQPLDVIESDSE [P616R P616R], the mutation enrichment score is -12. The same measure, in the same setting: to PRSPNTGPYPSEQALPIPGTSPPNYDSLRLQPLDVIESDSE [P616S P616S] belongs -12.

The same assay, now with this note: number of wild-type / mutant comparisons summed (bounds the score): 18; paper call: no_effect; wild-type window: ….
On to PRSPNTGPYPSEQALPIPGTLPPNYDSLRLQPLDVIESDSE [P616L P616L], for which the mutation enrichment score was -5.3.
